Source: PMC4277828 (BMC Pharmacology & Toxicology, 2014)

What was measured:
[1] = Steady-state plasma pharmacokinetics of rifabutin and 25-O-desacetylrifabutin with and without LPV/r-based ART (three-period crossover, LC/MS/MS, non-compartmental analysis); conditions: median (interquartile range), n = 14
[2] = Steady-state plasma pharmacokinetics of lopinavir given with two rifabutin doses (LCMS/MS, non-compartmental analysis); conditions: Median (Interquartile range); for concentration at 0 h / concentration at 12 h: human, plasma, oral; for concentration at 0 h: C0 (pre-dose concentration); for concentration at 12 h: Cmin (trough concentration)
[3] = Rifabutin 150 mg daily plus LPV/r

Row | SMILES | C0 (pre-dose concentration) [1, 3] | Tmax [1, 3] | C0 (pre-dose concentration) ([1]; Rifabutin 150 mg tiw plus LPV/r) | AUC(0-t) ([1]; human, plasma, oral, 150 mg, AUC0–48, Rifabutin 150 mg tiw plus LPV/r) | Cmax ([1]; human, plasma, oral, 150 mg, Rifabutin 150 mg daily plus LPV/r) | Cmax ([1]; human, plasma, oral, 150 mg, Rifabutin 150 mg tiw plus LPV/r) | Tmax ([2]; RBT 150 mg tiw plus LPV/r) | concentration at 0 h ([2]; RBT 150 mg daily plus LPV/r) | concentration at 0 h ([2]; RBT 150 mg tiw plus LPV/r) | concentration at 12 h ([2]; RBT 150 mg daily plus LPV/r) | concentration at 12 h ([2]; RBT 150 mg tiw plus LPV/r)
1 | CO[C@H]1/C=C/O[C@@]2(C)Oc3c(C)c(O)c4c(c3C2=O)C2=NC3(CCN(CC(C)C)CC3)NC2=C(NC(=O)/C(C)=C\C=C\[C@H](C)[C@H](O)[C@@H](C)[C@@H](O)[C@@H](C)[C@H](OC(C)=O)[C@@H]1C)C4=O [Rifabutin, rifabutin] | 176.5 (149.0-195.0) ng/mL | 3.0 (3.0-4.0) h | 49.1 (27.7-58.9) ng/mL | 3400 ng·h/mL | 311 ng/mL | 168 ng/mL |  |  |  |  | 
2 | Cc1cccc(C)c1OCC(=O)N[C@@H](Cc1ccccc1)[C@@H](O)C[C@H](Cc1ccccc1)NC(=O)[C@H](C(C)C)N1CCCNC1=O [lopinavir] |  |  |  |  |  |  | 2.0 (2.0-3.0) h | 11400 ng/mL | 9800 ng/mL | 9400 ng/mL | 7400 ng/mL
